In all, about 39,000 compounds went through this assay and about 220 (0.56%) showed activity. The list shows a part of the results.
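Note: static incubation at 37 °C against the wild-type strain, values averaged over two biological replicates.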

The assay has as its system Escherichia coli K-12 BW25113. In words: relative growth (OD600 normalised to plate interquartile mean) (fraction); higher = less growth inhibition, active = 0.2 or less. To be noted: 50 µM; LB; incubation time: overnight (16-24 h).
For `C[C@@H]1CCCCO[C@@H](CN(C)C(=O)C2CCCCC2)[C@H](C)CN([C@H](C)CO)C(=O)c2cc(NC(=O)C3CCCCC3)ccc2O1`, the relative growth is inactive: 0.976. The value for `Cc1noc(C)c1NC(=O)N(C)C[C@H]1OCCCC[C@@H](C)Oc2ccc(NC(=O)c3ccccc3)cc2C(=O)N([C@@H](C)CO)C[C@H]1C` was inactive: 0.997; that for `COC(=O)CCCCC(=O)c1[nH]c(=O)[nH]c1C` was inactive: 1.03; that for `C[C@H](CO)N1C[C@H](C)[C@H](CN(C)S(=O)(=O)c2ccccc2)Oc2ncc(-c3ccncc3)cc2C1=O` was inactive: 0.967. The result for `COc1ccc(CN(C)C[C@H]2OCCCC[C@H](C)Oc3ccc(NS(=O)(=O)c4cccs4)cc3C(=O)N([C@@H](C)CO)C[C@@H]2C)cc1` reads inactive: 1. The result for `C[C@H](CO)N1C[C@H](C)[C@H](CN(C)Cc2ccc(-c3ccccc3)cc2)Oc2ccc(NC(=O)Cc3ccccc3)cc2C1=O` reads inactive: 1.02; that for `COc1ccc(NC(=O)N(C)C[C@@H]2Oc3ncc(C#C[C@@H](C)O)cc3C(=O)N([C@@H](C)CO)C[C@H]2C)cc1`, inactive: 1; that for `CC1=CC(C)(C)N(C(=O)/C=C/c2ccccc2)c2ccc(C)cc21`, inactive: 1.06. In the case of `CC(C)NC(=O)N(C)C[C@H]1Oc2ccc(NC(=O)Cn3cnnn3)cc2C(=O)N([C@H](C)CO)C[C@@H]1C`, the relative growth was inactive: 0.982.

Take `Cc1noc(N)c1C(=O)O`: the relative growth is inactive: 1.01. The result for `C[C@@H]1CN([C@H](C)CO)S(=O)(=O)c2ccc(C#CC(C)(C)O)cc2O[C@H]1CN(C)C(=O)C1CCCCC1` reads inactive: 0.986; that for `C[C@@H]1CN([C@H](C)CO)C(=O)c2cc(C#CC3(O)CCCC3)cnc2O[C@H]1CN(C)C(=O)CN(C)C`, inactive: 1.01; that for `Cc1ccc(Nc2nc3ccccc3s2)cc1Cl`, inactive: 0.989. As for `C[C@@H]1CN([C@H](C)CO)C(=O)c2cc(NS(=O)(=O)c3ccc(Cl)cc3)ccc2O[C@@H]1CN(C)Cc1ccc(C(=O)Nc2ccccc2N)cc1`, the relative growth is inactive: 0.999. As to `O=C(O)CSCC(=O)N[C@H]1CCSC1=O`, the relative growth is inactive: 0.997. The result for `C[C@@H]1CN([C@@H](C)CO)C(=O)Cc2cc(NC(=O)CCN3CCOCC3)ccc2O[C@@H]1CN(C)S(=O)(=O)c1ccc(Cl)cc1` reads inactive: 1.01; that for `C[C@@H]1CCCCO[C@H](CN(C)Cc2ccc(Cl)c(Cl)c2)[C@H](C)CN([C@@H](C)CO)C(=O)c2cc(NS(=O)(=O)c3ccc(F)cc3)ccc2O1`, inactive: 0.99; that for `Cc1ccc(F)cc1NC(=O)CN`, inactive: 0.987. In the case of `COc1ccc(CN(C)C[C@H]2OCCCC[C@@H](C)Oc3ccc(NC(=O)NC(C)C)cc3C(=O)N([C@H](C)CO)C[C@H]2C)cc1`, the relative growth is inactive: 1.02. The result for `COc1ccc(-c2ccc3c(c2)O[C@@H](CN(C)CC2CCOCC2)[C@H](C)CN([C@H](C)CO)S3(=O)=O)cc1` reads inactive: 1.01. The value for `C[C@H](CO)N1C[C@H](C)[C@H](CN(C)C(=O)NC2CCCCC2)OCCCC[C@H](C)Oc2ccc(NC(=O)C3CCCCC3)cc2C1=O` was inactive: 0.965; that for `O=C(CN1CCOCC1)N[C@@H]1CC[C@H](CCn2cc(C3CC3)nn2)O[C@H]1CO` was inactive: 1. The result for `C[C@H]1CN([C@@H](C)CO)C(=O)c2cccc(NS(=O)(=O)c3cccs3)c2O[C@@H]1CN(C)Cc1ccncc1` reads inactive: 1.01; that for `CN1CCO[C@H]2CCN(C(=O)c3ccn(C)n3)C[C@H]21`, inactive: 1.01; that for `Cc1ccc(S(=O)(=O)Nc2ccc3c(c2)CC(=O)N([C@@H](C)CO)C[C@H](C)[C@@H](CN(C)C(=O)NC(C)C)O3)cc1`, inactive: 0.976.

Take `C[C@@H]1CCCCO[C@@H](CN(C)S(=O)(=O)c2cccs2)[C@H](C)CN([C@@H](C)CO)C(=O)c2cc(NC(=O)Cc3ccccc3)ccc2O1`: the relative growth is inactive: 1.03. With `C[C@@H](NC(=O)C[C@@H]1CC[C@H](NC(=O)CN2CCOCC2)[C@@H](CO)O1)c1ccccc1`, the relative growth was inactive: 0.991. The value for `C[C@@H]1CN([C@@H](C)CO)C(=O)c2cc(NC(=O)Nc3ccccc3)ccc2O[C@@H](C)CCCCO[C@H]1CN(C)C(=O)c1ccccc1` was inactive: 1.05; that for `C[C@@H]1CN([C@H](C)CO)C(=O)c2cccc(NC(=O)Nc3ccc(C(F)(F)F)cc3)c2O[C@H]1CN(C)C(=O)Nc1cccc2ccccc12` was inactive: 0.758; that for `CC(=O)N1CCNCC1` was inactive: 0.984. As to `COc1cccc(-c2ccc3c(c2)O[C@@H](CN(C)C(=O)C2CC2)[C@H](C)CN([C@H](C)CO)S3(=O)=O)c1`, the relative growth was inactive: 1. With `O=c1nc2[nH][nH]cc-2c(=O)[nH]1`, the relative growth is inactive: 1. Take `C[C@H]1CN([C@@H](C)CO)C(=O)Cc2cc(NC(=O)Cc3ccccc3)ccc2O[C@@H]1CN(C)Cc1ccc(Oc2ccccc2)cc1`: the relative growth was inactive: 0.992. The result for `O=C1O[C@H](c2ccccc2)[C@H](c2ccccc2)N2[C@H]1[C@@H](C(=O)O)[C@]1(C(=O)Nc3ccc(C#CC4=CCCCC4)cc31)[C@H]2c1ccccc1OCCO` reads inactive: 0.969; that for `COc1ccc(/C=C/CN2CCC(C(=O)N[C@@H](c3ccc(F)cc3)c3ccc4ccccc4n3)CC2)cc1`, inactive: 1.01; that for `COc1ccc(NC(=O)N(C)C[C@@H]2OCCCC[C@@H](C)Oc3ccc(NS(=O)(=O)c4ccc(OC)cc4)cc3C(=O)N([C@H](C)CO)C[C@@H]2C)cc1`, inactive: 0.981.

For `COc1ccc(NC(=O)Nc2ccc3c(c2)C(=O)N([C@@H](C)CO)C[C@@H](C)[C@H](CN(C)C(=O)Nc2ccc(F)cc2)OCCCC[C@H](C)O3)cc1`, the relative growth was inactive: 1.04. The result for `COc1ccc(CCNC(=O)[C@@]2(Sc3ccc(C)cc3)CC(=O)N(Cc3ccccc3C(F)(F)F)[C@@H]2c2ccc(CO)cc2)cc1` reads inactive: 0.987; that for `C[C@H](CO)N1C[C@H](C)[C@@H](CN(C)S(=O)(=O)c2ccccc2)Oc2cc(Br)ccc2S1(=O)=O`, inactive: 1.03. The result for `C[C@@H]1CN([C@H](C)CO)C(=O)CCCn2nncc2CO[C@@H]1CN(C)C(=O)Nc1ccc(N2CCCCC2)cc1` reads inactive: 1.03. In the case of `C[C@@H]1CN([C@@H](C)CO)C(=O)c2cc(NS(=O)(=O)c3cn(C)cn3)ccc2O[C@@H](C)CCCCO[C@@H]1CN(C)C`, the relative growth is inactive: 0.955.

For the compound `NC(CO)(CO)CO`, the relative growth is inactive: 1.12.

As to `COc1ccc([Si](C)(C)[C@H]2[C@H](CCO)O[C@@]3(C(=O)N(Cc4cccc(N(C=O)c5ccccc5)c4)c4ccccc43)[C@@H]2C)cc1`, the relative growth is inactive: 1.04. The value for `Cc1ccc(S(=O)(=O)Nc2ccc3c(c2)C(=O)N([C@@H](C)CO)C[C@@H](C)[C@@H](CN(C)S(=O)(=O)c2cn(C)cn2)O3)cc1` was inactive: 1.01; that for `C[C@@H]1CN([C@@H](C)CO)C(=O)c2cc(NC(=O)Nc3cccc4ccccc34)ccc2O[C@@H]1CN(C)Cc1ccncc1` was inactive: 0.951; that for `Cc1ccc(S(=O)(=O)N(C)C[C@H]2Oc3ccc(NS(=O)(=O)c4ccc(F)cc4)cc3C(=O)N([C@H](C)CO)C[C@H]2C)cc1` was inactive: 1.03. With `C=CC[C@H](CC(=O)NCCO)C(=O)N[C@@H](COC(=O)[C@H](CC=C)CC(=O)OC(C)(C)C)Cc1ccccc1`, the relative growth is inactive: 0.989. Regarding `C[C@H]1CCCCO[C@H](CN(C)C)[C@@H](C)CN([C@@H](C)CO)C(=O)c2cc(NC(=O)Nc3cccc4ccccc34)ccc2O1`, the relative growth was inactive: 0.96. The value for `COc1ccc(S(=O)(=O)N(C)C[C@@H]2Oc3ccc(NC(=O)c4ccncc4)cc3C(=O)N([C@@H](C)CO)C[C@H]2C)cc1` was inactive: 1; that for `COc1ccc2c(c1)OCc1c-2oc2cc(OC)ccc12` was inactive: 0.93; that for `C[C@H]1CN([C@@H](C)CO)C(=O)c2cc(NC(=O)CCCCCC(=O)Nc3ccccc3N)ccc2O[C@@H]1CN(C)CC1CCCCC1` was inactive: 0.969.

On to `O=C(C[C@H]1C[C@@H]2c3cc(NC(=O)NC4CCCC4)ccc3O[C@@H]2[C@H](CO)O1)NCc1ccc(Oc2ccccc2)cc1`, for which the relative growth was inactive: 1.02. For the compound `C[C@H]1CN([C@@H](C)CO)C(=O)Cc2cc(NC(=O)Nc3ccc(C(F)(F)F)cc3)ccc2O[C@@H]1CN(C)C(=O)Nc1ccccc1`, the relative growth was inactive: 0.982. As for `C[C@@H]1CCCCO[C@@H](CN(C)C(=O)C2CCCCC2)[C@@H](C)CN([C@@H](C)CO)C(=O)c2cc(NC(=O)Nc3ccc4c(c3)OCO4)ccc2O1`, the relative growth was inactive: 1.03.

In the case of `COc1ccc(NC(=O)Nc2cccc3c2O[C@@H](CN(C)CC2CCCCC2)[C@@H](C)CN([C@@H](C)CO)C3=O)cc1`, the relative growth is inactive: 1. The result for `NC(=O)NC1CCCCC1` reads inactive: 0.973. With `C[C@H](CO)N1C[C@H](C)[C@H](CN(C)C(=O)C2CCOCC2)Oc2ncc(-c3cccc(C#N)c3)cc2C1=O`, the relative growth is inactive: 1.01. The result for `c1c[nH]cn1` reads inactive: 0.997; that for `C[C@@H]1CN([C@H](C)CO)C(=O)c2cc(NC(=O)NC3CCCCC3)ccc2O[C@@H](C)CCCCO[C@@H]1CN(C)Cc1ccc(Cl)c(Cl)c1`, inactive: 1.03. `C[C@@H]1CCCCO[C@H](CN(C)Cc2ccncc2)[C@@H](C)CN([C@H](C)CO)C(=O)c2cc(NC(=O)Cc3ccccc3)ccc2O1`: the relative growth was inactive: 1.02. The value for `C[C@@H]1CN([C@H](C)CO)C(=O)c2cccc(NC(=O)Nc3cccc4ccccc34)c2O[C@H]1CN(C)S(=O)(=O)c1cccs1` was inactive: 0.991; that for `CC(=O)NCCCC[C@@H]1NC(=O)[C@@H]2C[C@H](C(=O)NCCCCCCNC(=O)CS)[C@H](c3ccc(O)cc3)N2C1=O` was inactive: 1; that for `CC(C)NC(=O)N(C)C[C@H]1OCCCC[C@H](C)Oc2ccc(NC(=O)Nc3ccc(F)cc3)cc2C(=O)N([C@H](C)CO)C[C@@H]1C` was inactive: 0.882.
